According to PubChem BioAssay AID1345083 (National Center for Advancing Translational Sciences (NCATS), 2018):
About 6,200 (6.6%) of roughly 94,000 compounds were called active. This list was built around the results that the source calls inconclusive (neither active nor inactive); the mix of calls is not that of the screen. The call rests on the fitted dose curve; in most records, active means well fitted inhibition curve with a large enough effect; inconclusive means small, poorly fitted or top-dose-only effect; inactive means flat fitted curve, though single readings scatter. Potencies beside an inconclusive call are fits to weak or partial responses and may not hold up.

Test: Cytotoxic Profiling in HEK 293 Cell Line of Diverse Libraries Using Quantitative High-Throughput Screening; further: nearly all actives have a fitted effect of over 60% in size
Conditions: HEK 293 viability, ATP luminescence (CellTiter-Glo), 48-72 h; activity change, negative = cytotoxicity: at 115 µM (top of the series) unless noted; series mostly up to 115 µM
Summary of the method: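 CellTiter-Glo luminescence (cellular ATP) was read after 48 or 72 hr of compound exposure at 37 degree Celsius. Cells were HEK 293 plated at 250 cells/well.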
On the % scale 0 is the no-effect control and ±100 the full control effect; potency means the concentration at half of the fitted maximal effect; tags describe the fitted curve by direction and shape.

Compound	Potency	activity change, negative = cytotoxicity	outcome
O=C(Cc1cccc(Cl)c1)N1CCN(c2ccnc3ccnn23)CC1	inconclusive: 50.1 µM [inhibitor, partial curve, poor fit]		
C[C@H](C(=O)N(C)CCC#N)C1CC[C@@]2(C)Cc3sc(NC(=O)C4CC4)nc3[C@@H](C)[C@@H]2[C@H]1O (stereo partly specified)		inactive: -2.44%	
O=C(NCc1ccc(F)cc1)c1ccc2nnc(C3CCOCC3)n2c1	inactive		
Cc1cnc(CC2CCN(C(=O)NCC(C)C)CC2)n1Cc1ccc(F)cc1		inactive: -18.3%	
Cc1cccc(CN2CCc3ncc(C(=O)NCc4ccccc4)n3CC2)n1	active: 100 µM		
Cc1ccsc1CN1CCCC(CO)CCNC(=O)CC1 (stereo unspecified)	inconclusive: 50.1 µM [inhibitor, partial curve, poor fit]		
COc1ccc(C(=O)N2CCC3(CC2)NC(=O)N(c2cccc(F)c2)N3)cc1OC	inconclusive: 35.5 µM [inhibitor, full curve, poor fit]		
COc1ccc(F)cc1-c1ccc(CN2CCCCC2C(=O)NCCCc2ccccc2)cc1 (stereo unspecified)	inconclusive: 22.4 µM [inhibitor, full curve, poor fit]		
O=C(C1CCCN(C2CCN(c3ncnc4sccc34)CC2)C1)N1CCCC1 (stereo unspecified)	inconclusive: 56.2 µM [inhibitor, partial curve, poor fit]		
COc1ccc(CNC(=O)N2CCC(Oc3ccc(-c4noc(C5CC5)n4)cc3)C2)cc1 (stereo unspecified)	inconclusive: 56.2 µM [inhibitor, partial curve, poor fit]		
Cc1cc(C(=O)N2CCCC(C(=O)Nc3cccc(-c4cc5ccccc5[nH]4)c3)C2)nn1C (stereo unspecified)	active: 31.6 µM		
C[S+](=O)([O-])c1ccc(-c2nnc3ccc(C(=O)NCC4CC4)cn23)cc1		inactive: -5.62%	
COc1ccc(-c2[nH]nc3ncc(-c4cccc(F)c4)nc23)c(C)c1	inconclusive: 79.4 µM [inhibitor, partial curve]		
CCOc1ccccc1NC(=O)Cn1c(N2CCOCC2)nc(CC)cc1=O	inconclusive: 79.4 µM [inhibitor, single point]		
CCN1CC(c2ccccc2)CC2(CCN(C(=O)c3ccon3)CC2)C1 (stereo unspecified)		inactive: -12%	
O=C(c1ccccc1)N1CCCC(C(=O)N2CCC(N3CCOC3=O)CC2)C1 (stereo unspecified)		inactive: 0.279%	
O=C1COc2ccc(-c3ccccc3)nc2CN1CCOc1ccccc1	inconclusive: 100 µM [inhibitor, partial curve, poor fit]		
Cc1ccc(-c2noc([C@@H]3CCCN3C(=O)c3ccc4c(c3)OCO4)n2)cc1	inconclusive: 89.1 µM [inhibitor, single point]		
Cn1nc(C2CCCC2)cc1NC(=O)C1CCCC1		inactive: -5.99% [at 172 µM]	
O=C(Nc1cccnc1)N1CCOC[C@H](Oc2ccc(C(F)(F)F)cc2)C1	inconclusive: 112 µM [inhibitor, partial curve]		
CC(C)CCN1CCC2(C1)C(=NC1CCCC1)NC(=O)N2c1cc(F)cc(F)c1 (stereo unspecified)	inconclusive: 79.4 µM [inhibitor, partial curve, poor fit]		
COc1cccc(C(=O)N2CCN(c3cc(C(F)(F)F)nc(C)n3)CC2)c1	inconclusive: 89.1 µM [inhibitor, single point]		

Compound	Potency	activity change, negative = cytotoxicity	outcome
CCC(C)C(=O)N1CCc2[nH]nc(C(=O)NCCCc3ccccc3)c2C1 (stereo unspecified)	active: 11.2 µM		
COc1ccccc1-c1cccc(CN2CCC(NC(C)=O)CC2)c1		inactive: -25.5%	
CC(C)C(=O)N1Cc2ccccc2CC2(CCCN(Cc3ccccc3)C2)C1 (stereo unspecified)	inconclusive: 44.7 µM [inhibitor, partial curve, poor fit]		
O=C(NC1CC1)[C@@H]1CN(Cc2ccc(Cl)cc2F)C[C@H]1CO	inconclusive: 100 µM [inhibitor, single point]		
COc1ccc(-c2nc(C3CC3)nc3c2CCN(Cc2cccnc2)CC3)cc1	inconclusive: 89.1 µM [inhibitor, single point]		
Cc1cc(S(=O)(=O)N2CCN(C3CCN(Cc4ccccn4)C3=O)CC2)ccc1Cl (stereo unspecified)	inconclusive: 89.1 µM [inhibitor, partial curve, poor fit]		
CCCC[S+](=O)([O-])N1CCC2(CC1)[C@H](C(=O)OCC)[C@@H](OC)C(=O)N2C		inactive: -21.8%	
CNC(C)c1ccc(Oc2ccccc2)cc1 (stereo unspecified)	active: 100 µM		
O=C(Cn1cccc1-c1nc(-c2ccc(F)cc2)no1)Nc1ccc(F)cc1	inconclusive: 50.1 µM [inhibitor, partial curve, poor fit]		
COc1ccc(OCC2CN(Cc3cccc(F)c3)S(=O)(=O)c3cnccc3O2)cc1 (stereo unspecified)	inconclusive: 35.5 µM [inhibitor, partial curve, poor fit]		
COc1ccc2[nH]c3c(c2c1)CCNC31CCN(C(=O)c2ccc(OC)nc2)CC1	inconclusive: 7.94 µM [inhibitor, full curve, poor fit]		
O=C(c1ccc(OC(F)(F)F)cc1)N1CCC(c2n[nH]c(=O)n2-c2ccccc2)CC1		inactive: -15.3%	
COc1cccc(NC(=O)N[C@H]2CCN(C(=O)C=C(C)C)[C@@H]2C(=O)N[C@@H](Cc2cccs2)C(N)=O)c1		inactive: -0.217%	
Cc1cccc(C(=O)Nc2ccc(-c3nnc4n3CCCC4)cc2)c1	inconclusive: 89.1 µM [inhibitor, single point]		
O=S(=O)(c1ccccc1)N1CCCC(Cc2noc(-c3ccncc3)n2)C1 (stereo unspecified)	inconclusive: 35.5 µM [inhibitor, partial curve, poor fit]		
CN1CCN(C(=O)c2cc(-c3cccc(C(F)(F)F)c3)nc3c2cnn3C)CC1	inconclusive: 56.2 µM [inhibitor, partial curve, poor fit]		
CNC(=O)c1cc(C)nc2onc(C3CCCN3C(=O)N(C)C)c12 (stereo unspecified)		inactive: -17.8% [at 172 µM]	
COc1ccc(C(=O)N2CCC(c3n[nH]c(=O)n3Cc3ccc(C)cc3)CC2)cc1F		inactive: -4.44%	
COc1ccccc1CNC(=O)c1ccc(Cn2ccn3nc4c(c3c2=O)CCCC4)cc1	inconclusive: 31.6 µM [inhibitor, full curve]		
COCCN1C[C@H]2CN(C)c3ccccc3[C@@H]2N(C(=O)CC2CCCC2)CCC1=O	inconclusive: 15.8 µM [inhibitor, partial curve, poor fit]		
CCN1c2cc(C(=O)Nc3ccc4c(c3)OCCO4)ccc2C(=O)N2CCCCCC21 (stereo unspecified)	active: 17.8 µM		
COc1ccccc1-c1ccc(CN2CCCCC2C(=O)N2CCN(Cc3ccccc3)CC2)cc1 (stereo unspecified)	active: 31.6 µM		

Compound	Potency	activity change, negative = cytotoxicity	outcome
COc1ccccc1C(=O)N1CCN(c2cc(C(F)(F)F)ncn2)CC1		inactive: -26.2%	
Cc1ccc(-c2noc(CCCC(=O)N3CCC(CCOc4ccccc4F)C3)n2)cc1 (stereo unspecified)	inconclusive: 39.8 µM [inhibitor, partial curve, poor fit]		
O=C([C@@H]1C[C@H](F)CN1C(=O)c1ccc(Cl)cc1)N1CCCCC1			inactive
CCn1ncc(N2CCCC(CC(=O)Nc3ccc(C)c(C)c3)C2)cc1=O (stereo unspecified)	inconclusive: 56.2 µM [inhibitor, partial curve, poor fit]		
CCOc1ccccc1NC(=O)CC1CCCN(c2cnn(CC3CC3)c(=O)c2)C1 (stereo unspecified)	inconclusive: 100 µM [inhibitor, single point]		
COCCC(=O)N1CCC(c2noc(COc3ccc(F)cc3)n2)C1 (stereo unspecified)		inactive: -0.986%	
COc1ccc(NC(=O)Cn2ccn3nc(-c4ccccc4)c(CO)c3c2=O)c(OC)c1	inconclusive: 89.1 µM [inhibitor, single point]		
O=C(NCc1cccs1)c1ccc2nnc(-c3ccc(C(F)(F)F)cc3)n2c1	inconclusive: 44.7 µM [inhibitor, partial curve, poor fit]		
CCOC(=O)c1ccc(NC(=O)N2Cc3[nH]cnc3C[C@H]2c2nc(C(C)C)no2)cc1	inconclusive: 100 µM [inhibitor, partial curve, poor fit]		
O=C(c1cccnc1)N1CCC(c2nnc(Cn3cccn3)n2C2CC2)CC1			inactive
Fc1cccc(CN2CCC(Cc3nc(-c4ccccc4)n[nH]3)C2)c1 (stereo unspecified)	inconclusive: 56.2 µM [inhibitor, partial curve, poor fit]		
CNC(=O)N1CCC(C2CCN(C(=O)c3cccn3C)C2)CC1 (stereo unspecified)		inactive: 4.54%	
COc1ccc(CCN2Cc3cc(NC(=O)c4ccccc4)ccc3OCC2=O)cc1	inconclusive: 89.1 µM [inhibitor, single point]		
COCCN1Cc2nc(NCc3ccccc3)ccc2OCC1=O	inconclusive: 100 µM [inhibitor, partial curve]		
CCOC(=O)C1CCN(C(=O)CC(c2ccc(OC)c(OC)c2)c2c[nH]c3c(CC)cccc23)CC1 (stereo unspecified)	active: 79.4 µM		
NCc1cccc(-c2ccccc2F)c1		inactive: -17.7% [at 172 µM]	
O=C(c1ccccc1F)N1CCC(n2cc(-c3nc(-c4ccccc4)no3)nn2)C1 (stereo unspecified)	inconclusive: 50.1 µM [inhibitor, partial curve, poor fit]		
CCCN1CCN(C(=O)c2c(C)oc3c2CN(Cc2ccc(C)cc2)CC3)CC1	inconclusive: 89.1 µM [inhibitor, single point]		
CC(Oc1ccccc1)C(=O)N1CC(Oc2ccccc2-c2nc(-c3ccccc3)no2)C1 (stereo unspecified)	active: 44.7 µM		
O=C(Nc1ccccc1)c1ccc(N2CC3CCC(C2)N3CC(F)(F)F)nn1	inconclusive: 50.1 µM [inhibitor, partial curve, poor fit]		
O=C(Nc1ccccc1)N1CCC(F)(c2nc(Cc3ccccc3)no2)CC1	inconclusive: 56.2 µM [inhibitor, partial curve, poor fit]		
O=C1Nc2ccc(-c3cccc(C(F)(F)F)c3)cc2C(=O)N2CCN(C(=O)c3cccnc3)C[C@H]12	inconclusive: 56.2 µM [inhibitor, partial curve, poor fit]		
